{"source": "the supplement of paper PMC3334620", "note": "In all, about 33,000 sequences were measured (“E-score (-0.5 to 0.5)”: median about -0.054, highest 2% from about 0.35 on). This is one part of the list."}
{"target": "T1, Stb5 (UniProt P38699)", "T1 sequence": "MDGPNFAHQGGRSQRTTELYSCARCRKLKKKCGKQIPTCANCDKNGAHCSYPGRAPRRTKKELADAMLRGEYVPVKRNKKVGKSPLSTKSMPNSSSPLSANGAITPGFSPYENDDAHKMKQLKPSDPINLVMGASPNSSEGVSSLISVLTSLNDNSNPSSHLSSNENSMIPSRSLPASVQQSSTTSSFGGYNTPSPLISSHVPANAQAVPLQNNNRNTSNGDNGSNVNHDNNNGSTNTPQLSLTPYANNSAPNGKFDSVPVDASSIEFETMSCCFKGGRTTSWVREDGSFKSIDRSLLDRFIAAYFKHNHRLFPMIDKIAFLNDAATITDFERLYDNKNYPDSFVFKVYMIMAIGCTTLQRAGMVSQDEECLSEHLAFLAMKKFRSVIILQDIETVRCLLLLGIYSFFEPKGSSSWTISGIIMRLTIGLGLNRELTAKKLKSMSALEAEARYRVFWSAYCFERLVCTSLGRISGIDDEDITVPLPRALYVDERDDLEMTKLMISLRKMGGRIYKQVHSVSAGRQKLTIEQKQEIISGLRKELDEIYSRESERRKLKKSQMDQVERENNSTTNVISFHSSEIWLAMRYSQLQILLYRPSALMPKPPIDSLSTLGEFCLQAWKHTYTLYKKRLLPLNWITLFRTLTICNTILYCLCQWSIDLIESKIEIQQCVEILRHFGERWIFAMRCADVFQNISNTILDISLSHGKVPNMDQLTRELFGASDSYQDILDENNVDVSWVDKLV", "assay": "PBM E-score (8-mer binding enrichment) (E-score (-0.5 to 0.5)); higher = stronger / more preferred TF binding; most listed sequences are background and not binding sites", "conditions": "protein concentration: 200 nM; construct: GST-full length", "method_in_brief": "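Full-length yeast transcription factors or their DNA-binding domains, GST-tagged and expressed with PURExpress, were applied at about 100-200 nM to universal all-10-mer Agilent arrays. These arrays had been made double-stranded by primer extension on fresh or once-stripped slides. Detection used fluorescent anti-GST, normalisation used masliner, and E-scores for ungapped eight-base words pooled with reverse complements came from the Universal PBM Analysis Suite.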"}
{"sequence": "CAGTCCCC", "PBM E-score": -0.0834}
{"sequence": "ATGGGGGC", "PBM E-score": -0.0967}
{"sequence": "CACCAAGC", "PBM E-score": -0.0707}
{"sequence": "AGAGAGCG", "PBM E-score": 0.0126}
{"sequence": "ACTAGACG", "PBM E-score": -0.142}
{"sequence": "CACAAATG", "PBM E-score": -0.149}
{"sequence": "CAACGGAA", "PBM E-score": 0.0716}
{"sequence": "GTACGGCA", "PBM E-score": 0.136}
{"sequence": "GCGGACCC", "PBM E-score": 0.299}
{"sequence": "TCGTGAGA", "PBM E-score": 0.0768}
{"sequence": "AACCAGGC", "PBM E-score": 0.00402}
{"sequence": "CTCGCACC", "PBM E-score": -0.0397}
{"sequence": "AAAGGCGC", "PBM E-score": -0.0348}
{"sequence": "TCAAGTCA", "PBM E-score": -0.175}
{"sequence": "GTCCGGCA", "PBM E-score": 0.326}
{"sequence": "GTCTGAAC", "PBM E-score": -0.291}
{"sequence": "AAGAATTC", "PBM E-score": -0.0986}
{"sequence": "ACGTTTTC", "PBM E-score": -0.151}
{"sequence": "AAGGCGAA", "PBM E-score": -0.0519}
{"sequence": "AGGCAACC", "PBM E-score": -0.251}
{"sequence": "ATTAAAAA", "PBM E-score": 0.132}
{"sequence": "ATATCCAC", "PBM E-score": 0.0538}
{"sequence": "AAATGAGC", "PBM E-score": -0.0043}
{"sequence": "ATTCGGCG", "PBM E-score": 0.253}
{"sequence": "AGGCGTAT", "PBM E-score": -0.351}
{"sequence": "CGTACCTC", "PBM E-score": -0.0812}
{"sequence": "GGCGAACA", "PBM E-score": 0.00107}
{"sequence": "CAACGCAA", "PBM E-score": -0.153}
{"sequence": "CGTCGTCC", "PBM E-score": 0.015}
{"sequence": "CCCGGCGG", "PBM E-score": 0.346}
{"sequence": "GCTAACAC", "PBM E-score": 0.12}
{"sequence": "ACATGGGG", "PBM E-score": -0.0579}
{"sequence": "CCCATAAG", "PBM E-score": 0.0301}
{"sequence": "AATGGCTA", "PBM E-score": -0.234}
{"sequence": "AGCCTCCT", "PBM E-score": -0.197}
{"sequence": "ACCCTAGG", "PBM E-score": -0.165}
{"sequence": "GGGTATGA", "PBM E-score": 0.0414}
{"sequence": "CCAAAAGA", "PBM E-score": -0.00867}
{"sequence": "GTTAGCAA", "PBM E-score": -0.0846}
{"sequence": "CACCGACG", "PBM E-score": 0.453}
{"sequence": "AGGCGAGC", "PBM E-score": -0.274}
{"sequence": "CCAACCGG", "PBM E-score": 0.115}
{"sequence": "AGTTCCTC", "PBM E-score": -0.063}
{"sequence": "TGGACCAA", "PBM E-score": -0.112}
{"sequence": "ATAGACAC", "PBM E-score": -0.129}
{"sequence": "ACTAATTA", "PBM E-score": -0.0164}
{"sequence": "GATTCGAA", "PBM E-score": 0.0331}
{"sequence": "GCCGATCA", "PBM E-score": 0.257}
{"sequence": "ACCGGGCT", "PBM E-score": 0.38}
{"sequence": "AGATACAC", "PBM E-score": -0.0174}
{"sequence": "AGATTGCT", "PBM E-score": -0.13}
{"sequence": "CATCACAC", "PBM E-score": -0.106}
{"sequence": "CACCATCC", "PBM E-score": -0.00376}
{"sequence": "GAACAATC", "PBM E-score": -0.0939}
{"sequence": "AAATCAGC", "PBM E-score": -0.0153}
{"sequence": "GTTGAATA", "PBM E-score": -0.0531}
{"sequence": "AGTGATGC", "PBM E-score": -0.129}
{"sequence": "CATGCAGG", "PBM E-score": -0.294}
{"sequence": "CTTCGCCC", "PBM E-score": -0.0134}
{"sequence": "GGCGCTGA", "PBM E-score": 0.136}
{"sequence": "ATCATGGC", "PBM E-score": -0.00977}
{"sequence": "ACATGTCG", "PBM E-score": 0.142}
{"sequence": "GTTTTCAA", "PBM E-score": -0.0238}
{"sequence": "GGAGCATA", "PBM E-score": 0.139}
{"sequence": "ACTATGGG", "PBM E-score": -0.177}
{"sequence": "ACTTGGTC", "PBM E-score": 0.00341}
{"sequence": "CCGCCACG", "PBM E-score": 0.284}
{"sequence": "CACCGTTC", "PBM E-score": 0.368}
{"sequence": "AGTCGTCC", "PBM E-score": -0.113}
{"sequence": "AAGCATAC", "PBM E-score": -0.201}
{"sequence": "ACTGCCAC", "PBM E-score": -0.127}
{"sequence": "ATATCAAG", "PBM E-score": -0.0382}
{"sequence": "ATAAAGCA", "PBM E-score": -0.281}
{"sequence": "AGATGTAA", "PBM E-score": -0.0933}
{"sequence": "CCCCTGAG", "PBM E-score": -0.252}
{"sequence": "CATACAGG", "PBM E-score": -0.218}
{"sequence": "ACTGAGGG", "PBM E-score": -0.272}
{"sequence": "CTATCATC", "PBM E-score": 0.0322}
{"sequence": "CGGTCCAA", "PBM E-score": 0.186}
{"sequence": "AGGAACTA", "PBM E-score": 0.0488}
{"sequence": "ATGCCAGG", "PBM E-score": -0.176}
{"sequence": "ATAGGAAG", "PBM E-score": -0.141}
{"sequence": "CGTGATCA", "PBM E-score": 0.00777}
{"sequence": "AATCGTTA", "PBM E-score": -0.232}
{"sequence": "TCCACGGA", "PBM E-score": 0.243}
{"sequence": "ATATGCCC", "PBM E-score": 0.266}
